Source: article PMC4336329 (PLoS ONE, 2015)
In all, about 310,000 compounds went through this assay and about 2,200 (0.71%) showed an effect of 50% or more. The effect is printed as a negative number. This is one part of the list.

target: human ether-à-go-go-related gene (hERG) potassium channel (human, UniProt Q12809); assay: primary screen, population patch clamp on CHO cells stably expressing hERG
Sequence (Q12809 whole entry, looked up): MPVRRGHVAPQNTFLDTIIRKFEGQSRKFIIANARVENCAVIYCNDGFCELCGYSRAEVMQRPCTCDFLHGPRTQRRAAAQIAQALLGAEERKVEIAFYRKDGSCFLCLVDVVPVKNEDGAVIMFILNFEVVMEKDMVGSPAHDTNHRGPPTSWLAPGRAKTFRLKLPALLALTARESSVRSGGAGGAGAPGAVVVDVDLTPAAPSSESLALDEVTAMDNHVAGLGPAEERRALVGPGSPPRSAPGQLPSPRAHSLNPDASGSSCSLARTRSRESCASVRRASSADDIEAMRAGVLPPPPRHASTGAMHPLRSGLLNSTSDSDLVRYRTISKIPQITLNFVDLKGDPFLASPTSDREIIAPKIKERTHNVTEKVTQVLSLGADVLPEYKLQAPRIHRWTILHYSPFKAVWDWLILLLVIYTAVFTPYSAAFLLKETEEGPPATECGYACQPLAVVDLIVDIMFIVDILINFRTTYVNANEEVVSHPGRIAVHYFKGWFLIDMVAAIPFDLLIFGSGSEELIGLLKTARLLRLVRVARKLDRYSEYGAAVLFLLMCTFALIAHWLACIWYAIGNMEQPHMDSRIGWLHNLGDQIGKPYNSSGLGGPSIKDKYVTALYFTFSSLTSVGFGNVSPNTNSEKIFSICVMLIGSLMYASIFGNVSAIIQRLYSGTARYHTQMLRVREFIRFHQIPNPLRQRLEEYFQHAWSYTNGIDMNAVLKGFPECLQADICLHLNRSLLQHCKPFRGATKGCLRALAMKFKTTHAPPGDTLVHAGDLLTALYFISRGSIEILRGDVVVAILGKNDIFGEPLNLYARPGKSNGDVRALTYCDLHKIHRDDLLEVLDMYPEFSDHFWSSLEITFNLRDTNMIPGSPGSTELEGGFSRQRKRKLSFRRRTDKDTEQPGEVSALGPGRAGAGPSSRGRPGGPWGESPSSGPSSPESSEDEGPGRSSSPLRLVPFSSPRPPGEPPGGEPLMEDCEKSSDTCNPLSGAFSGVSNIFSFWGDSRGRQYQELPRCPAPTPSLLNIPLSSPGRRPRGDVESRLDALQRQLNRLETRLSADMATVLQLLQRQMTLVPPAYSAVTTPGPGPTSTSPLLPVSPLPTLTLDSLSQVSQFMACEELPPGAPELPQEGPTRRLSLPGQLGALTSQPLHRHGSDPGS

Row | SMILES | hERG current change (%, negative = inhibition) at 1uM [%]
1 | CCOc1ccc2nc(C(=O)N3CCCC(C)C3)sc2c1 (centres unmarked) | 6.18
2 | COc1ccc(-c2cc3nc4c(c(N5CCC6(CC5)OCCO6)n3n2)CCC4)cc1 | 7.61
3 | Cn1c(COc2ccc3ccccc3c2)nnc1SCC(N)=O | 9.4
4 | CC(=O)c1ccccc1OCCOc1ccccc1C(C)=O | -10.8
5 | CCOC(=O)c1cc(=O)c2ccc(OCC(=O)Nc3ccccc3)cc2o1 | 9.79
6 | COCCN1C(=O)c2ccc(C(=O)NCc3ccco3)cc2C1=O | 2.03
7 | CCCOc1ccc(N2C(=O)C3ON(c4ccccc4)C(CCC)C3C2=O)cc1 (centres unmarked) | 10.1
8 | C=CCN1CCN(C(c2cccc(OC)c2OC)c2nnnn2CCC(C)C)CC1.Cl (centres unmarked) | 10.7
9 | Cc1cccc(C(=O)n2cnnc2N)c1 | 10.6
10 | O=C(CCNC(=O)C1CCN(S(=O)(=O)c2ccccc2)CC1)NCc1ccncc1 | 22.3
11 | O=c1[nH]cc(S(=O)(=O)c2ccccc2)[nH]1 | 8.88
12 | O=c1c2cn[nH]c2nc(SCc2c(F)cccc2F)n1-c1ccc(Cl)cc1 | 8.44
13 | O=C(Oc1cccc(N2C(=O)CCC2=O)c1)c1ccccc1 | 7.35
14 | CC(C)C(c1nnnn1C1CCCC1)N1CCN(C(=O)c2ccco2)CC1 (centres unmarked) | -5.97
15 | Cc1ccc(S(=O)(=O)Nc2ccc3c(c2)OCCO3)cc1 | 15.5
16 | Cc1ccc(-c2nc(CSCC(=O)N3CCCC3)c(C)o2)cc1 | -14.1
17 | CCCC(=O)Nc1nnc(COC)s1 | 6.75
18 | CN=c1scc(C)n1/N=C/c1cc(Br)c(O)c(OC)c1 | 18.2
19 | S=C(NCc1cccc(Cl)c1)NCc1ccco1 | 14.9
20 | CCc1cc2c(=O)c(-c3nc(C)cs3)c(CCCC(=O)O)oc2cc1O | 22.4
21 | CCNc1nc2cccnc2s1 | 10.3
22 | CCOc1ccccc1NC(=O)COC(=O)C(CC(C)C)N1C(=O)C2CC=CCC2C1=O (centres unmarked) | 15.6
23 | CC(=O)c1cccc(NC(=S)NCCC2=CCCCC2)c1 | 9.39

Row | SMILES | hERG current change (%, negative = inhibition) at 1uM [%]
24 | COc1ccc(Br)cc1CNc1ccc(N2CCOCC2)cc1 | 12.5
25 | O=c1[nH]cnc2sc3c(c12)CCCC3 | 16.1
26 | CS(=O)(=O)Nc1nnc(SCC(=O)Nc2cccc([N+](=O)[O-])c2)s1 | 3.42
27 | NS(=O)(=O)c1cccc(NC(=O)c2cccc(-c3ccc(O)cc3)c2)c1 | 18
28 | CCc1ccc(S(=O)(=O)N/N=C\c2ccc3c(c2)OCO3)cc1 | 17.2
29 | COc1ccccc1NC(=O)CCC(=O)OCC(=O)c1ccc(C)c([N+](=O)[O-])c1 | 9.32
30 | CCOC(=O)c1c(C)[nH]c(C)c1C(=O)C(Cc1ccccc1)N(C)C.Cl (centres unmarked) | 10.9
31 | Cc1ccccc1OCCC(=O)OCC(=O)NC1CC1 | 1.25
32 | CC(NC(=O)c1cccc(C(F)(F)F)c1)C1CCCO1 (centres unmarked) | -4.83
33 | COc1ccc(-c2nc(CCNC(=O)c3ccco3)cs2)cc1OC | 7.08
34 | O=C(NCc1cccnc1)c1cccc(Cl)c1 | 7.16
35 | COC(=O)[C@H](CCSC)NC(=O)c1cc2c(cn1)[nH]c1ccccc12 | 14.3
36 | N#CCCN(C(=O)CO/N=C/c1cccc([N+](=O)[O-])c1)c1ccccc1 | 17.1
37 | Cc1ccc(S(=O)(=O)NNC(=O)Nc2cccc3ccccc23)cc1 | 12.5
38 | Cl.O=C(CCN1CCOCC1)c1ccc(Br)cc1 | 14.9
39 | Clc1ccc(-c2nc3cc(CN4CCCCC4)ccc3o2)cc1 | 9.71
40 | COc1ccc(O[C@H]2C=C[C@@H](c3ccccc3)O[C@@H]2COC(=O)CC/C(C)=N/OC[C@@H](O)[C@H]2O[C@@H]3OC(C)(C)O[C@@H]3[C@H]2O)cc1 | -11.2
41 | CC(=O)Nc1ncc2c(n1)CC(c1ccco1)CC2=O (centres unmarked) | -4.91
42 | Cc1cccc(N2CCN(C(=O)c3cn4ccccc4n3)CC2C)c1 (centres unmarked) | 12.1
43 | COc1ccccc1NS(=O)(=O)c1ccc(-c2cc(C)no2)s1 | 13.5
44 | Cc1cccc(NC(=O)c2csnn2)n1 | 9.84
45 | O=C1CC2c3ccccc3C1C1C(=O)N(CCO)C(=O)C21 (centres unmarked) | 7.35
46 | O=C(Nc1ccc(Oc2ccccc2)cc1)c1ccco1 | 4.74

Row | SMILES | hERG current change (%, negative = inhibition) at 1uM [%]
47 | Cc1cc(C(F)(F)F)nc(SCC(=O)Nc2c(C)n(C)n(-c3ccccc3)c2=O)n1 | -0.388
48 | Cc1ccccc1NC(=O)N1CCc2ccccc2C1 | 20.1
49 | COCCCNc1nc2c(c(=O)[nH]c(=O)n2C)n1CC(O)COc1ccccc1 (centres unmarked) | -2.53
50 | CCN1C(=O)C(CC(=O)NC2CCCCC2)N(CC)C1=O (centres unmarked) | 6.32
51 | COc1ccc(CNC(=O)CNC(=O)N2CC(=O)Nc3ccccc32)cc1 | 7.68
52 | COc1ccc(NC(=O)CN(C)C(=O)C23CC4CC(CC(C4)C2)C3)cc1 | -11
53 | Cc1c(NC(=O)c2cn3ccccc3n2)cccc1-n1cnnn1 | 8.18
54 | O=C(O)C(=O)O.O=C(c1ccco1)N1CCN(Cc2ccccc2F)CC1 | 6.83
55 | CCN(CC)S(=O)(=O)c1cccc(NC(=O)/C=C/c2cccc([N+](=O)[O-])c2)c1 | 11.2
56 | CC(C)Oc1ccc(C(=O)NC2(C(F)(F)F)N=C3SCCN3C2=O)cc1 (centres unmarked) | 12.8
57 | Cc1cc(NC(=O)CSCC(=O)Nc2ccccc2N2CCCCC2)no1 | -0.0494
58 | COc1cc(OC)cc(C(=O)Nc2ccc(S(=O)(=O)Nc3cc(C)on3)cc2)c1 | 13.9
59 | COC(=O)c1sc(S(=O)(=O)NCC(=O)O)c(C(=O)OC)c1C | 11.8
60 | O=C1CC(C(=O)NC2CCCCC2)C(c2ccccc2)O1 (centres unmarked) | 14.9
61 | N#CCCn1cc(C(=O)Nc2ccccn2)c(-c2ccccc2)n1 | 7.32
62 | CCc1nc2ccccc2c(C(=O)NCc2ccccc2)c1C | 7.13
63 | O=C(NC(=S)Nc1ccc(Br)cc1)C1CCC1 | -4.01
64 | O=C(NCCc1ccccc1)c1ccc(CS(=O)Cc2cccc(Cl)c2)o1 (centres unmarked) | 5.47
65 | CC(=O)Nc1ccc(-c2nc3ccccc3c(=O)o2)cc1 | 17.8
66 | CC(C)CNS(=O)(=O)c1ccc(CCC(=O)NCc2ccc(Cl)cc2)cc1 | 2.67
67 | CC(NC(=O)c1cccs1)C(c1cccs1)N1CCN(c2ccccc2)CC1 (centres unmarked) | -4.47
68 | CC(CCc1ccccc1)NC(=O)CC(C)c1ccccc1 (centres unmarked) | 12.4
69 | Cc1cccc(N(C(=O)CNC(=O)c2ccco2)C(C(=O)NC2CCCCC2)c2cccnc2)c1 (centres unmarked) | 18

Row | SMILES | hERG current change (%, negative = inhibition) at 1uM [%]
70 | COC(=O)c1ccc(NC(=O)CCN2CCCCC2)cc1.Cl | -51
71 | COc1ccc2nc(C)cc(SCC(=O)[O-])c2c1.[Na+] | 17
72 | Cc1c(Cc2ccccc2)c(=O)oc2cc(OCc3ccc(C(=O)O)cc3)ccc12 | 11.3
73 | COc1ccc(NS(=O)(=O)c2ccc(NC(=S)NC(=O)c3cccnc3)cc2)nn1 | 10.3
74 | Cc1cccc(Nc2ncnc(N)n2)c1 | 11.5
75 | Cn1c(NC(=O)c2ccccc2C(F)(F)F)cc(=O)n(C)c1=O | 3.26
76 | CC1(C)CC(=O)C(CC(=O)NC2CCCc3ccccc32)C(=O)C1 (centres unmarked) | 14.3
77 | CC(=O)Nc1nc(-c2ccccc2)nc(-c2ccccc2OC(C)=O)n1 | -6.2
78 | CC(=O)Nc1cccc(/C(C)=N/NC(=O)c2ccc3c(c2)OCO3)c1 | 11.6
79 | O=C(Nc1ccc(NC(=O)c2ccccc2F)cc1)c1cccs1 | 25.3
80 | CCCCc1ccc(/C=C2\C(=O)c3ccccc3C(O)=C2C(=O)OCC)cc1 | 10.4
81 | Clc1ccc(SCc2nc3ccccc3[nH]2)cc1 | 2.53
82 | O=C(COc1ccccc1C(=O)O)Nc1ccc(SC(F)F)cc1 | 11.2
83 | CCc1cc[n+](-c2nc3ccccc3nc2C(=C=[N-])C#N)cc1 | 12.5
84 | O=C(CN(CC1CCCO1)C(=O)CNS(=O)(=O)c1ccc(Cl)cc1)NCCc1ccccc1 (centres unmarked) | -10.6
85 | Cc1ccc(CNC(=O)c2cc3c(=O)n(C)c4ccccc4c3n2C)cc1 | 11.6
86 | CSc1ccc(/C=C2/C(=N)N3N=C(CC(=O)N4CCCC4)SC3=NC2=O)cc1 | 21.6
87 | Cn1cnnc1SCC(=O)N1N=C(c2ccc(Cl)cc2)CC1c1ccco1 (centres unmarked) | -2.91
88 | COc1ccccc1CN(C)C(=O)CN1CCN(S(=O)(=O)c2ccc3c(c2)OCCCO3)CC1 | 14.6
89 | CN(Cc1ccccc1)C(=O)c1ccc2c(c1)OCO2 | 2.41
90 | Cc1cc(NC(=O)CSc2nc(-c3ccccc3)cs2)no1 | 16.1
91 | CCn1c(-c2ccc([N+](=O)[O-])cc2)n[nH]c1=S | 11.4
92 | CC(C)c1ccc(NC2CCCN(C(=O)c3ccc(Cn4cnnn4)cc3)C2)cc1 (centres unmarked) | 7.77
